{"source": "the RNAGym collection of RNA variant scans (doi:10.1093/nar/gkz1192)", "parents": {"B1": {"name": "CPEB3 Ribozyme (parent)", "chain": "UAACAGGGGGCCACAGCAGAAGCGUUCACGUCGCAGCCCCUGUCAGAUUCUGGUGAAUCUGCGAAUUCUGCUGUAUAUCUC"}}, "note": "The source gives no read counts; variants with many changes may rest on few reads.", "data": [{"variants_of": "B1", "assay": "self-cleavage, relative activity (ratio to wild type); higher = more cleavage; in vitro, sequencing", "how_it_was_run": "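Libraries of CPEB3 self-cleaving ribozyme mutants came from rounds of error-prone PCR and carried barcodes, which DNA sequencing matched to variants. In vitro transcription used T7 RNA polymerase at 37°C for 5 hours, with a further 15 min in DNase I before EDTA stopped the reaction; the ribozymes cleaved during both steps. The RNA was reverse transcribed with template switching and sequenced on Illumina. Relative activity is the cleaved/total read fraction of a variant divided by that of the unmutated ribozyme, averaged over three batches with at least 5 reads.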", "values": [{"variant": "C11A U26C C39A U60C U78C", "self-cleavage": 0.16}, {"variant": "G10A A28G U48C U60A", "self-cleavage": 0.04}, {"variant": "C11A A18G C27A A45U A57G U60C U78C", "self-cleavage": 0.04}, {"variant": "G10A C12U A15G A21G A64G U78A", "self-cleavage": 0.05}, {"variant": "G10A A57G U76C", "self-cleavage": 0.22}, {"variant": "G10C G42U U66A U80C", "self-cleavage": 0.18}, {"variant": "G10C A56G U69C", "self-cleavage": 0.13}, {"variant": "C11A A35C A47G U51C U58C C81U", "self-cleavage": 0.12}, {"variant": "G10A A35G U41G", "self-cleavage": 0.17}, {"variant": "C11A A35U U54C", "self-cleavage": 0.05}, {"variant": "G10A G46U A64G A65G", "self-cleavage": 0.14}, {"variant": "G10C A21G C79U", "self-cleavage": 0.31}, {"variant": "G10A G36A A56G", "self-cleavage": 0.16}, {"variant": "G10A A20G A21G A65G U69A", "self-cleavage": 0.24}, {"variant": "C11A A15G U54C U80C", "self-cleavage": 0.25}, {"variant": "G10A C68A G70C", "self-cleavage": 0.05}, {"variant": "G10A U31C U60A A64G U72A", "self-cleavage": 0.1}, {"variant": "G10U U41C U54A U69A U76C U80C", "self-cleavage": 0.05}, {"variant": "G10U U41C A56G G63A U72A", "self-cleavage": 0.12}, {"variant": "G10C A28U U43A G53A", "self-cleavage": 0.19}, {"variant": "G10A A21G A35C U48C G52C", "self-cleavage": 0.11}, {"variant": "C11A U43C A47G A65G", "self-cleavage": 0.04}, {"variant": "G10A C27A G52C", "self-cleavage": 0.16}, {"variant": "G10A C12A U25C U67A", "self-cleavage": 0.31}, {"variant": "G10A A20U U25C A45U", "self-cleavage": 0.18}, {"variant": "G10A U41A U54C A57G U69C", "self-cleavage": 0.05}, {"variant": "G10A U41G U51C A57U U78C", "self-cleavage": 0.11}, {"variant": "G10C U51A A56U", "self-cleavage": 0.07}, {"variant": "C11A A18U U25C G36A", "self-cleavage": 0.05}, {"variant": "G10A U25A U31C U41C", "self-cleavage": 0.18}, {"variant": "C11A A21G U49A A56G", "self-cleavage": 0.07}, {"variant": "G10U A57G A64G", "self-cleavage": 0.48}, {"variant": "G10A A20U U43C A57C U78C", "self-cleavage": 0.06}, {"variant": "G10A G24A A35U U72A", "self-cleavage": 0.1}, {"variant": "G10C A18U U43A U51A", "self-cleavage": 0.23}, {"variant": "C11A A47G U48C A65U", "self-cleavage": 0.04}, {"variant": "G10A A20G A57G", "self-cleavage": 0.35}, {"variant": "G10A U41C A45U U76A", "self-cleavage": 0.29}, {"variant": "G10A A20G C32U A56G A57G U76A", "self-cleavage": 0.03}, {"variant": "G10A U43G U80C", "self-cleavage": 0.06}, {"variant": "G10A G52C G73A A77G", "self-cleavage": 0.51}, {"variant": "G10C A20G U25C G55A A57G", "self-cleavage": 0.04}, {"variant": "G10U A15G C29U U69C", "self-cleavage": 0.06}, {"variant": "C11A A64G U72C", "self-cleavage": 0.18}, {"variant": "G10A U25A A65G U69C", "self-cleavage": 0.04}, {"variant": "G10A C37U A56U U66A", "self-cleavage": 0.03}, {"variant": "G10A U48C A57G U67C U76A", "self-cleavage": 0.12}, {"variant": "G10A U43C U49A U51A A65C", "self-cleavage": 0.09}, {"variant": "G10A U43C A45U A57G", "self-cleavage": 0.2}, {"variant": "G10A U25A U54A C62G", "self-cleavage": 0.09}, {"variant": "G10A A28G A35U U51C", "self-cleavage": 0.11}, {"variant": "G10C U54A U78A", "self-cleavage": 0.3}, {"variant": "G10A A64U U72A", "self-cleavage": 0.05}, {"variant": "G10U U48C U74C", "self-cleavage": 0.08}, {"variant": "G10U U31A C59A A65G U66C", "self-cleavage": 0.05}, {"variant": "C11A A18G U26C A45G U58A U72A", "self-cleavage": 0.04}, {"variant": "G10A A20G U25C U66C G73A A77G", "self-cleavage": 0.04}, {"variant": "G10U A15G U41A U54A", "self-cleavage": 0.04}, {"variant": "G10C G42U U72C", "self-cleavage": 0.14}, {"variant": "G10A A21G U41A A47U U51A A64G U78C", "self-cleavage": 0.04}, {"variant": "G10A G19C U43C U58C U74C C79U", "self-cleavage": 0.03}, {"variant": "G10A C14U C50G A56G U69C", "self-cleavage": 0.13}, {"variant": "G10A U49C C79G", "self-cleavage": 0.06}, {"variant": "G10A A20G U60C", "self-cleavage": 0.23}, {"variant": "G10U U25C U48C U67C", "self-cleavage": 0.07}, {"variant": "G10A A21G U41C U60C U74C", "self-cleavage": 0.06}, {"variant": "G10C A28G A35G U49C", "self-cleavage": 0.1}, {"variant": "C11A A28G G63A A64C A77U U78A", "self-cleavage": 0.07}, {"variant": "G10U U25C U74C", "self-cleavage": 0.45}, {"variant": "G10A A56G G70C", "self-cleavage": 0.19}, {"variant": "C11A A15G A20G A35G A45G C59A", "self-cleavage": 0.05}, {"variant": "G10U U26C U49C", "self-cleavage": 0.19}, {"variant": "C11A C38G U58C U69A U74G", "self-cleavage": 0}, {"variant": "G10C U26A U31A G33A C34G A35C U41C", "self-cleavage": 0.05}, {"variant": "G10C A15U U60A", "self-cleavage": 0.43}, {"variant": "C11A A21G U69C", "self-cleavage": 0.45}, {"variant": "C11A A21G U69A", "self-cleavage": 0.35}, {"variant": "G10A U25C U49C U54C U67A U72C", "self-cleavage": 0.09}, {"variant": "G10A U25C U58A U80C", "self-cleavage": 0.07}, {"variant": "G10A C14U A20G A28G A35G G42C G70A", "self-cleavage": 0.04}, {"variant": "G10A A21G A28G", "self-cleavage": 0.08}, {"variant": "G10C U31A G52A U60C A65U", "self-cleavage": 0.06}, {"variant": "G10C A21G G30A C37A U49C", "self-cleavage": 0.04}, {"variant": "C11A A13G A15C U31C A35G A57G U78A", "self-cleavage": 0.07}]}]}
